This note sets out measurements from paper PMC4336329 (PLoS ONE, 2015).

Each structure is given as a SMILES string. In all, about 310,000 compounds went through this assay and about 2,200 (0.71%) showed an effect of 50% or more. The effect is printed as a negative number. Some of the results follow.

For this experiment, the target named is human ether-à-go-go-related gene (hERG) potassium channel (human, UniProt Q12809). The experiment in a line: primary screen, population patch clamp on CHO cells stably expressing hERG.
human ether-à-go-go-related gene (hERG) potassium channel, sequence (Q12809 whole entry, looked up): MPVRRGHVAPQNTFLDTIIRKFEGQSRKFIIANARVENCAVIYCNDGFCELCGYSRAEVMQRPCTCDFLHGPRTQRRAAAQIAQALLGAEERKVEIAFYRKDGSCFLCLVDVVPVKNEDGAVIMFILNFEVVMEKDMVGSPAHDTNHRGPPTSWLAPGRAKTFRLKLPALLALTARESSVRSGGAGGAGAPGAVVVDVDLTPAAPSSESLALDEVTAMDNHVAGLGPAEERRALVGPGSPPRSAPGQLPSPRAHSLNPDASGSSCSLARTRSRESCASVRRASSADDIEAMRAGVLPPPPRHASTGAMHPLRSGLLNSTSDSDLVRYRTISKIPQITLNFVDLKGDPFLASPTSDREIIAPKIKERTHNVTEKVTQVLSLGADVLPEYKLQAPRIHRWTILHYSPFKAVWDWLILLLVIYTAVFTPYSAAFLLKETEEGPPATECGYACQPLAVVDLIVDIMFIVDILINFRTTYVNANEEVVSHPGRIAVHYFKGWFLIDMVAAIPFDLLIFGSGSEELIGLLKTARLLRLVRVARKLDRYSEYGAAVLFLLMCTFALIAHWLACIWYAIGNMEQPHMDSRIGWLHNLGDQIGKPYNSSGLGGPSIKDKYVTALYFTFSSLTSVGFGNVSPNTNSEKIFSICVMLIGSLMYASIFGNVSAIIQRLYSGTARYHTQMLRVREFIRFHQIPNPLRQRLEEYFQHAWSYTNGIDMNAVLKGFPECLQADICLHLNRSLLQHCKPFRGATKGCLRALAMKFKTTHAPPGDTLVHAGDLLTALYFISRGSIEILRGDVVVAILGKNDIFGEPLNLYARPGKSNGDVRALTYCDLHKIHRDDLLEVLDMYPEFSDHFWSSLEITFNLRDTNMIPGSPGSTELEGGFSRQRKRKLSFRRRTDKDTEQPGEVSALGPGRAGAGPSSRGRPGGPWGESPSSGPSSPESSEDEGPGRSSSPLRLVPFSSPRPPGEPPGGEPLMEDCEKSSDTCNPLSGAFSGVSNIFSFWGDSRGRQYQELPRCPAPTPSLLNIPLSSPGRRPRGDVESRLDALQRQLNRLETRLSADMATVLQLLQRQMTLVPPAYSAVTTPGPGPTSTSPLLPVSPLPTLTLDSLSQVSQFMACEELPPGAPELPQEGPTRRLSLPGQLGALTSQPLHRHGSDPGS
On to `O=C(CSc1nnnn1C1CCCC1)Nc1ccc2c(c1)OCCO2`, for which the “hERG current change (%, negative = inhibition) at 1uM” value worked out at 16.8%.

Turning to `CC(/C=N/Nc1ccc2nncn2n1)=C\c1ccccc1`, the “hERG current change (%, negative = inhibition) at 1uM” value is -11.4%.

In the case of `CN1CCN(C2=C(Cl)C(=O)N(c3cccc(Cl)c3)C2=O)CC1`, the “hERG current change (%, negative = inhibition) at 1uM” value worked out at 8.88%.

`CC(C)(C)C(=O)Nc1nc(-c2ccccc2)ns1`: the “hERG current change (%, negative = inhibition) at 1uM” value was 0.661%.

Turning to `O=C(CN1C(=O)NC2(CCc3ccccc32)C1=O)c1ccc(Cl)cc1` (stereo not drawn), the “hERG current change (%, negative = inhibition) at 1uM” value is on record as 0.347%.

Turning to `c1ccc(N2CCN(c3cnc4ccccc4n3)CC2)cc1`, the “hERG current change (%, negative = inhibition) at 1uM” value was 1.57%.

For the compound `O=c1[nH]c(=O)n(CCc2ccccc2)c(O)c1C=NCCCn1ccnc1`, the “hERG current change (%, negative = inhibition) at 1uM” value is 3.79%.

Take `COC(=O)c1cc(C(=O)NC(C)(C)CC(C)(C)C)cc([N+](=O)[O-])c1`: the “hERG current change (%, negative = inhibition) at 1uM” value was determined as 1.99%.

Regarding `COc1ccc(OC)c(NC(=O)C(CC(=O)O)Cc2ccc(Cl)cc2)c1` (stereo not drawn), the “hERG current change (%, negative = inhibition) at 1uM” value came to 10.8%.

Take `COC(=O)Cc1[nH]c(=S)[nH]c1C(=O)OC`: the “hERG current change (%, negative = inhibition) at 1uM” value was 9.65%.

Take `COC(C/C=C\[C@@H](O)[C@H](C)OCc1ccccc1)OC`: the “hERG current change (%, negative = inhibition) at 1uM” value is listed as 24%.

For the compound `CCCCn1c(N)c(N(CC)C(=O)c2ccc(C)cc2)c(=O)[nH]c1=O`, the “hERG current change (%, negative = inhibition) at 1uM” value came out at 17.8%.

With `CN(C)c1ccc(C(C(=O)NCc2ccccc2)N(Cc2ccco2)C(=O)c2snc(C(N)=O)c2N)cc1` (stereo not drawn), the “hERG current change (%, negative = inhibition) at 1uM” value is given as 8.48%.

With `COc1ccc(OC)c(NC(=O)NNC(=O)c2cc3occc3[nH]2)c1`, the “hERG current change (%, negative = inhibition) at 1uM” value is on record as 19.5%.

As to `CCOc1ccccc1N1C(=O)c2ccc(C(=O)Nc3cccnc3)cc2C1=O`, the “hERG current change (%, negative = inhibition) at 1uM” value amounted to 5.52%.

Turning to `Cc1ccccc1CC(=O)NC1CCN(C)CC1`, the “hERG current change (%, negative = inhibition) at 1uM” value is 11.5%.

On to `O=C(NCCN1CCOCC1)/C(=C\c1ccc(Br)cc1)NC(=O)c1cccs1`, for which the “hERG current change (%, negative = inhibition) at 1uM” value is given as -54%.

Turning to `COc1cccc(-c2csc(N3CCN(CC(=O)Nc4ccc5c(c4)OCO5)CC3)n2)c1`, the “hERG current change (%, negative = inhibition) at 1uM” value is 5.4%.

Turning to `Cc1[nH]c(=O)[nH]c(=O)c1S(=O)(=O)N1CCCC(C(=O)NCCc2ccc(Cl)cc2)C1` (stereo not drawn), the “hERG current change (%, negative = inhibition) at 1uM” value is on record as 2.35%.

As for `COc1cccc(Oc2ncnc(N)c2[N+](=O)[O-])c1`, the “hERG current change (%, negative = inhibition) at 1uM” value was 15.2%.

Take `O=C(CN1CCN(S(=O)(=O)c2cc(C(F)(F)F)ccc2Cl)CC1)N1CCc2ccccc2C1`: the “hERG current change (%, negative = inhibition) at 1uM” value is given as 7.11%.

Regarding `Nc1ccc(N2CCN(c3ccccc3)CC2)c(F)c1`, the “hERG current change (%, negative = inhibition) at 1uM” value was 6.04%.

With `CCN(CC)CCN(CC(=O)N(C1CCCCC1)C1CCCCC1)C(=O)c1ccco1.O=C(O)C(=O)O`, the “hERG current change (%, negative = inhibition) at 1uM” value amounted to 17.1%.

As for `COc1cc(C(=O)OCC(=O)Nc2ccc(SC(F)F)cc2)cc(OC)c1OC`, the “hERG current change (%, negative = inhibition) at 1uM” value was 10.8%.

For the compound `O=C(CCc1ccccc1)NNC(=S)NC(=O)c1ccccc1`, the “hERG current change (%, negative = inhibition) at 1uM” value was -2.1%.

Regarding `OC1CCCCC1Sc1nc2ccccc2s1` (stereo not drawn), the “hERG current change (%, negative = inhibition) at 1uM” value came out at 9.95%.

Turning to `COc1ccc(Cl)cc1NC(=O)CN(C)C(=O)Cn1c(=O)oc2ccccc21`, the “hERG current change (%, negative = inhibition) at 1uM” value is listed as 3.36%.

Take `COc1ccc(Cn2nnnc2C(CC(C)C)N2CCN(c3ccccc3)CC2)cc1` (stereo not drawn): the “hERG current change (%, negative = inhibition) at 1uM” value came out at 3.21%.

For `COc1ccccc1N(CC(=O)N1CCCC1)S(=O)(=O)c1ccc(C)cc1`, the “hERG current change (%, negative = inhibition) at 1uM” value was found to be 13.1%.

Consider `O=C(Nc1cccc(OC(F)(F)F)c1)c1ccc(Br)o1`, for which the “hERG current change (%, negative = inhibition) at 1uM” value is reported as -12.9%.

On to `Cl.N[C@@H](CCC(=O)O)C(=O)O`, for which the “hERG current change (%, negative = inhibition) at 1uM” value is reported as 10.8%.

On to `Oc1ccccc1/C=N/N1CCCCC1`, for which the “hERG current change (%, negative = inhibition) at 1uM” value is 8.95%.

As for `O=C(NCc1ccc(F)cc1)C1CCN(S(=O)(=O)N2CCCCC2)CC1`, the “hERG current change (%, negative = inhibition) at 1uM” value is -1.55%.

Consider `Cc1cc(C)cc(-c2nc(-c3ccncc3)no2)c1`, for which the “hERG current change (%, negative = inhibition) at 1uM” value is reported as 15%.

In the case of `CC(=O)c1sc(-c2ccccc2Cl)nc1C`, the “hERG current change (%, negative = inhibition) at 1uM” value amounted to 8.68%.

In the case of `Cc1ccc(OC(=O)Cn2c(C(F)(F)F)nc3ccccc32)cc1`, the “hERG current change (%, negative = inhibition) at 1uM” value turned out to be 1.96%.

As to `O=c1c2ccccc2oc2cc(C#CC3(O)CCCCC3)ccc12`, the “hERG current change (%, negative = inhibition) at 1uM” value is 15.9%.

Take `CCOC(=O)C1=C(C)NC(=S)N(C(C)=O)C1c1ccc(OC)c(OC)c1` (stereo not drawn): the “hERG current change (%, negative = inhibition) at 1uM” value is 11.7%.

Take `C#CC(C)OC(=O)Nc1cnccc1C(F)(F)F` (stereo not drawn): the “hERG current change (%, negative = inhibition) at 1uM” value worked out at 9.17%.

For `Cc1nc(C/C(=N\Nc2ccccc2)c2ccc(O)cc2O)cs1`, the “hERG current change (%, negative = inhibition) at 1uM” value is 2.56%.

As for `Cc1cccc(CSC2=NCCN2C(=O)c2ccc(S(=O)(=O)N(C)C)cc2)c1`, the “hERG current change (%, negative = inhibition) at 1uM” value was found to be 8%.

Regarding `COc1ccc(NC(=O)CN2CCN(S(=O)(=O)c3ccc(C(C)C)cc3)CC2)cc1OC`, the “hERG current change (%, negative = inhibition) at 1uM” value is on record as -6.98%.

Take `Cc1cc2cc(CNC(=O)Nc3cccc(Cl)c3)ccc2n1C`: the “hERG current change (%, negative = inhibition) at 1uM” value turned out to be 17%.

With `COc1ccc(C(=O)N/C(=C\c2ccco2)C(=O)NCCCn2ccnc2)cc1`, the “hERG current change (%, negative = inhibition) at 1uM” value was -0.883%.

As for `NC(=O)NN=C1C2CCCC1C(c1ccccc1)NC2c1ccccc1` (stereo not drawn), the “hERG current change (%, negative = inhibition) at 1uM” value was determined as 11.9%.

Take `COc1cccc(CN(C)C(=O)[C@@H](NC(=O)c2ccc(C)cc2)C(C)C)c1`: the “hERG current change (%, negative = inhibition) at 1uM” value was 1.72%.

For the compound `CN(C(=O)CSc1nnc(-c2ccncc2)n1-c1ccccc1)C1CCS(=O)(=O)C1` (stereo not drawn), the “hERG current change (%, negative = inhibition) at 1uM” value was 13.7%.

As to `CC(C)(C)CN1CCNC(=O)C1CC(=O)NCCc1cnn(-c2ccccc2)c1` (stereo not drawn), the “hERG current change (%, negative = inhibition) at 1uM” value turned out to be 5.53%.

Consider `Cc1ccc(/C=C(\C#N)c2nn(-c3ccccc3)c(N)c2C#N)cc1`, for which the “hERG current change (%, negative = inhibition) at 1uM” value came to 7.54%.

Turning to `CCN(CC)CCP(=O)(c1ccccc1)c1ccccc1`, the “hERG current change (%, negative = inhibition) at 1uM” value was -0.32%.

For `COc1ccc(CN(C)C(=O)c2cccc(Oc3ccccc3)c2)c(OC)c1OC`, the “hERG current change (%, negative = inhibition) at 1uM” value came to 9.3%.

`COc1ccc(OCC(O)CNC(=O)Nc2cc(F)ccc2C)cc1` (stereo not drawn): the “hERG current change (%, negative = inhibition) at 1uM” value is listed as 7.6%.

As for `Cc1ccc(-n2c(C)nnc2SCC(=O)N2CCOCC2)cc1`, the “hERG current change (%, negative = inhibition) at 1uM” value worked out at 16.1%.

In the case of `O=C(COC(=O)c1ccc2ncsc2c1)Nc1cc([N+](=O)[O-])ccc1Cl`, the “hERG current change (%, negative = inhibition) at 1uM” value worked out at 7.27%.

On to `COc1ccc(-c2nc(C(=O)O)cs2)cc1OC`, for which the “hERG current change (%, negative = inhibition) at 1uM” value came to 2.58%.

As for `CCOC(=O)N1CCN(C(=O)c2ccc(Cn3c(=S)[nH]c4cc(C(=O)OC)ccc4c3=O)cc2)CC1`, the “hERG current change (%, negative = inhibition) at 1uM” value amounted to 15.6%.

Regarding `O=C(NCc1ccc(Cl)cc1)C(=O)NCC(c1ccco1)N1CCOCC1` (stereo not drawn), the “hERG current change (%, negative = inhibition) at 1uM” value is on record as -0.387%.
